In the supplement of paper PMC7826260:
The list shows a part of the results. Cleavage of a single-stranded DNA pool by Rep nickase domains was read by sequencing at 3 µM enzyme and 37 °C for 1 h; the strands have 90 letters, of which the middle is given. Values are log2 of uncut reads against the no-enzyme pool; more negative means more cut, near 0 not cut, and no call is made. Counts are relative to all reads, so uncut sequences can rise above 0 when many others are cut.

System: T1, Rep nickase domain of tomato golden mosaic virus
T1 sequence (residues 1-124, tag not shown): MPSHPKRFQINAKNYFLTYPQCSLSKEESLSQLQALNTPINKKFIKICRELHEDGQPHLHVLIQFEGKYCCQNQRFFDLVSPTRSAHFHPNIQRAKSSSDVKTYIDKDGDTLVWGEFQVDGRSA
Experiment: uncleaved DNA left, log2 of reads against the no-enzyme library (log2 ratio); higher = less cleavage (more negative = more Rep cleavage of the k-mer); sequences stand for … in CTCGTCCG…ACCGGAGA
Procedure: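 A pool of 90-nt single-stranded DNAs with seven random bases just before the constant AC of the nick site (name = the seven bases) was cut by 3 µM recombinant His6-SUMO-tagged Rep nickase domain (300 nM DNA, 50 mM HEPES pH 8.0, 50 mM NaCl, 1 mM MnCl2, 1 h, 37 °C, three replicates). Uncut DNA was amplified and sequenced.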

Sequence	uncleaved DNA left (log2)
GGGGGTC	-0.0725
CACGTCT	-0.00964
CGTACCC	-0.107
CCTCAAG	-0.00774
CTAGCCT	-0.119
CATAGAC	0.0296
GTGCAGA	0.0243
ACCTCAC	0.0401
CGTGTAT	0.00307
AAGCCTT	-0.159
CGAAACA	0.197
TCGAAAG	-0.0774
TCGGTTA	0.212
CTCCAAG	0.0486
TGGCCTT	-0.192
GGAGTAC	-0.0467
AACCGTG	0.103
ATGTTGA	-0.0478
TCGATGT	-0.146
CGTCTCT	-0.146

Sequence	uncleaved DNA left (log2)
CATTCAT	0.0593
CAAAGCA	-0.0549
ACCCAAG	0.122
CACGCTT	-0.0731
CATAAAT	0.091
CTCCCTG	-0.164
GGGACAA	-0.0364
CTCATGA	-0.192
GAATCAC	-0.00687
CCTTCCA	-0.115
ATTCAGC	0.0366
GTCAGGA	0.125
TGAGTTC	-0.0731
GTAAGTT	0.00462
CTGATGC	-0.0587
GTTTTAA	0.117
CATCGCC	0.159
GGGGAGT	0.0707
CAATGAG	-0.151
GTTCTGA	0.0418
